According to article PMC12820563, “FoxP3 forms a head-to-head dimer in vivo and stabilizes its multimerization on adjacent microsatellites”:
The other results are listed elsewhere or left out.

Biological target: T1, MBP-FoxP1dN (Mus musculus, UniProt P58462 326-579)
T1 sequence: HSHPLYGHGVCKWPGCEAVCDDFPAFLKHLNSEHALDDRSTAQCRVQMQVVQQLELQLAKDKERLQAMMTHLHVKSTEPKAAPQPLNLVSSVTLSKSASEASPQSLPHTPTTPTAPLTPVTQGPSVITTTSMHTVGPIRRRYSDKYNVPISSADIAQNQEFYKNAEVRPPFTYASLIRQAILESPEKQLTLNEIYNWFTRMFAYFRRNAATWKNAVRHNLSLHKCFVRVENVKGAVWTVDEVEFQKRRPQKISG
Assay: PD-seq (MBP pull-down with sequencing); 20 mM Tris-HCl pH 7.5, 100 mM NaCl, 1.5 mM MgCl2, 0.4 uM protein, 0.1 uM dsDNA library, 30 min, room temperature, amylose pull-down; high values mean tight binding
Settings: protein: recombinant; tags: His6-MBP; chain copies: 2; dsDNA, one strand shown
Method in brief: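 A degenerate double-stranded DNA library, filled in with Klenow, was added at 0.1 µM to 0.4 µM His6-MBP-tagged mouse FoxP3 or FoxP1 fragment lacking the N-terminus, expressed in E. coli. Incubation lasted 30 min at room temperature in Tris pH 7.5 buffer with NaCl and MgCl2, after which complexes were collected on amylose resin, washed three times, digested with proteinase K to free the DNA, barcoded by PCR and sequenced by Illumina. Binding is the pooled-replicate reads-per-million enrichment of pull-down over input.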

Sequence | binding signal
GATGATTGTTCTCCCAGCTGATGAATTAGTCACGTCGAGTAAACAAATTTTCCTAATCTTTCTGTTCAAGCGCCATCTAC | 0.916 RPM ratio (pull-down/input)
GATGATTGTTCTCCCAGCTGATGAATTTAGTTATTCGAGTAAACAAATTTTCCTAATCTTTCTGTTCAAGCGCCATCTAC | 1.22 RPM ratio (pull-down/input)
GATGATTGTTCTCCCAGCTGATGAATTTTTATTGTCGAGTAAACAAATTTTCCTAATCTTTCTGTTCAAGCGCCATCTAC | 2.51 RPM ratio (pull-down/input)
GATGATTGTTCTCCCAGCTGATGAATTGGTACTGTCGAGTAAACAAATTTTCCTAATCTTTCTGTTCAAGCGCCATCTAC | 1.04 RPM ratio (pull-down/input)
GATGATTGTTCTCCCAGCTGATGAATTCACAATGTCGAGTAAACAAATTTTCCTAATCTTTCTGTTCAAGCGCCATCTAC | 0.966 RPM ratio (pull-down/input)
GATGATTGTTCTCCCAGCTGATGAATTTGGTCCGTCGAGTAAACAAATTTTCCTAATCTTTCTGTTCAAGCGCCATCTAC | 0.9 RPM ratio (pull-down/input)
GATGATTGTTCTCCCAGCTGATGAATTGGGGCGATCGAGTAAACAAATTTTCCTAATCTTTCTGTTCAAGCGCCATCTAC | 0.85 RPM ratio (pull-down/input)
GATGATTGTTCTCCCAGCTGATGAATTACTTACGTCGAGTAAACAAATTTTCCTAATCTTTCTGTTCAAGCGCCATCTAC | 1.12 RPM ratio (pull-down/input)
GATGATTGTTCTCCCAGCTGATGAATTATCGTTTTCGAGTAAACAAATTTTCCTAATCTTTCTGTTCAAGCGCCATCTAC | 1.18 RPM ratio (pull-down/input)
GATGATTGTTCTCCCAGCTGATGAATTGCCTGGCTCGAGTAAACAAATTTTCCTAATCTTTCTGTTCAAGCGCCATCTAC | 0.809 RPM ratio (pull-down/input)
GATGATTGTTCTCCCAGCTGATGAATTACCCATTTCGAGTAAACAAATTTTCCTAATCTTTCTGTTCAAGCGCCATCTAC | 0.997 RPM ratio (pull-down/input)
GATGATTGTTCTCCCAGCTGATGAATTAGGACAATCGAGTAAACAAATTTTCCTAATCTTTCTGTTCAAGCGCCATCTAC | 1.24 RPM ratio (pull-down/input)
GATGATTGTTCTCCCAGCTGATGAATTGCATTAGTCGAGTAAACAAATTTTCCTAATCTTTCTGTTCAAGCGCCATCTAC | 1.27 RPM ratio (pull-down/input)
GATGATTGTTCTCCCAGCTGATGAATTCGCTGCGTCGAGTAAACAAATTTTCCTAATCTTTCTGTTCAAGCGCCATCTAC | 0.945 RPM ratio (pull-down/input)
GATGATTGTTCTCCCAGCTGATGAATTGCCCCCGTCGAGTAAACAAATTTTCCTAATCTTTCTGTTCAAGCGCCATCTAC | 0.928 RPM ratio (pull-down/input)
GATGATTGTTCTCCCAGCTGATGAATTGCTTTCCTCGAGTAAACAAATTTTCCTAATCTTTCTGTTCAAGCGCCATCTAC | 1.2 RPM ratio (pull-down/input)

Sequence | binding signal
GATGATTGTTCTCCCAGCTGATGAATTAACCTGTTCGAGTAAACAAATTTTCCTAATCTTTCTGTTCAAGCGCCATCTAC | 0.867 RPM ratio (pull-down/input)
GATGATTGTTCTCCCAGCTGATGAATTTGATTCGTCGAGTAAACAAATTTTCCTAATCTTTCTGTTCAAGCGCCATCTAC | 0.812 RPM ratio (pull-down/input)
GATGATTGTTCTCCCAGCTGATGAATTATTTTTGTCGAGTAAACAAATTTTCCTAATCTTTCTGTTCAAGCGCCATCTAC | 1.37 RPM ratio (pull-down/input)
GATGATTGTTCTCCCAGCTGATGAATTATCGAGGTCGAGTAAACAAATTTTCCTAATCTTTCTGTTCAAGCGCCATCTAC | 0.84 RPM ratio (pull-down/input)
GATGATTGTTCTCCCAGCTGATGAATTGGCTTCATCGAGTAAACAAATTTTCCTAATCTTTCTGTTCAAGCGCCATCTAC | 0.889 RPM ratio (pull-down/input)
GATGATTGTTCTCCCAGCTGATGAATTCCGTGTATCGAGTAAACAAATTTTCCTAATCTTTCTGTTCAAGCGCCATCTAC | 1.1 RPM ratio (pull-down/input)
GATGATTGTTCTCCCAGCTGATGAATTGCATCCGTCGAGTAAACAAATTTTCCTAATCTTTCTGTTCAAGCGCCATCTAC | 1.43 RPM ratio (pull-down/input)
GATGATTGTTCTCCCAGCTGATGAATTTACCATGTCGAGTAAACAAATTTTCCTAATCTTTCTGTTCAAGCGCCATCTAC | 1.28 RPM ratio (pull-down/input)
GATGATTGTTCTCCCAGCTGATGAATTGCGGCAGTCGAGTAAACAAATTTTCCTAATCTTTCTGTTCAAGCGCCATCTAC | 0.919 RPM ratio (pull-down/input)
GATGATTGTTCTCCCAGCTGATGAATTACGAGCCTCGAGTAAACAAATTTTCCTAATCTTTCTGTTCAAGCGCCATCTAC | 0.926 RPM ratio (pull-down/input)
GATGATTGTTCTCCCAGCTGATGAATTAGTAGGCTCGAGTAAACAAATTTTCCTAATCTTTCTGTTCAAGCGCCATCTAC | 0.798 RPM ratio (pull-down/input)
GATGATTGTTCTCCCAGCTGATGAATTTTGTTGCTCGAGTAAACAAATTTTCCTAATCTTTCTGTTCAAGCGCCATCTAC | 1.79 RPM ratio (pull-down/input)
GATGATTGTTCTCCCAGCTGATGAATTCGGATGCTCGAGTAAACAAATTTTCCTAATCTTTCTGTTCAAGCGCCATCTAC | 1.08 RPM ratio (pull-down/input)
GATGATTGTTCTCCCAGCTGATGAATTGGAAATTTCGAGTAAACAAATTTTCCTAATCTTTCTGTTCAAGCGCCATCTAC | 0.843 RPM ratio (pull-down/input)
GATGATTGTTCTCCCAGCTGATGAATTGAGGATGTCGAGTAAACAAATTTTCCTAATCTTTCTGTTCAAGCGCCATCTAC | 0.89 RPM ratio (pull-down/input)
